# Test results: PubChem BioAssay AID624417 (National Center for Advancing Translational Sciences (NCATS), 2012)
# Screen size: about 410,000 compounds; about 6,400 (1.6%) were called active. Inconclusive means that the source gave no clear call. Such entries were picked first, then a sample of the others. Calls come from the whole dose curve; as a rule, active = well fitted inhibition curve with a large enough effect; inconclusive = small, poorly fitted or top-dose-only effect; inactive = no such curve, though single readings can be large or run the other way. No potency is given beside an inconclusive call; the fits are too rough.
# Target: Glucagon-like peptide 1 receptor (Homo sapiens) (UniProt P43220)
# Chain of UniProt P43220 (P43220 whole entry, looked up): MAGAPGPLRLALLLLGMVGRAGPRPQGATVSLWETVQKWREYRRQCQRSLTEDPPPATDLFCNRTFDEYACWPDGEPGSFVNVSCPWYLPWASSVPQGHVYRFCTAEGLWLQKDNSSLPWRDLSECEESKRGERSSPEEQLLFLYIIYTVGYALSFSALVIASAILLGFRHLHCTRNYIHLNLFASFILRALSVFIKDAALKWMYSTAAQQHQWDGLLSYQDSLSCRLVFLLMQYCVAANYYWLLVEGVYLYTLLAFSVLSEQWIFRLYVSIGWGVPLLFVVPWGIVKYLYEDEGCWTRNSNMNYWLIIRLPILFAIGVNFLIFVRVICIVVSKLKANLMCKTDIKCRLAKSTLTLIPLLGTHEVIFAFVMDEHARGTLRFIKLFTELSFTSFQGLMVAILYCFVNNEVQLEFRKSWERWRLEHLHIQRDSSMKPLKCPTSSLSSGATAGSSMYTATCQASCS
# Experiment: qHTS of GLP-1 Receptor Inverse Agonists (Inhibition Mode); note: nearly all actives have a fitted effect of over 55% in size
# Conditions: HEK293 GLP-1R CRE-luciferase, luminescence, 24 h, GLP-1R form is constitutively active; series mostly up to 38.3 µM
# Method in brief: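 qHTS in 1536-well format: reporter HEK293 cells expressing constitutive GLP-1R activity in DMEM + 10% Nu serum, 24 hr with compounds at 37 deg C, luminescence read after 12 min with detection reagent.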
# Potency is the fitted concentration of half-maximal effect; tags give direction and shape of the fitted curve.
row,SMILES,Potency
1,O=C1C=C(c2ccc(O)cc2)C[C@@H](c2ccc3c(c2)OCO3)C1,"inconclusive [inhibitor, single point]"
2,C[C@@H]1C[C@H](Nc2ccccc2)c2ccccc2N1C(=O)c1cccnc1,"inconclusive [inhibitor, full curve]"
3,O=C1OCCN1C(=O)[C@H]1[C@H](c2ccc([N+](=O)[O-])cc2)C(c2cccc(Cl)c2)=NN1c1ccccc1,"inconclusive [inhibitor, partial curve, poor fit]"
4,C=CCSC1=N/C(=C\c2ccc(C)o2)C(=O)S1,"inconclusive [inhibitor, partial curve, poor fit]"
5,Cn1c(=O)c(C(=O)CCl)c(N)n(CC2CC2)c1=O,inactive
6,O=C1[C@H]2[C@@H](c3ccc(C(F)(F)F)cc3)N[C@]3(CCCN(CC4CCCCC4)C3=O)[C@H]2C(=O)N1Cc1ccccc1,"inconclusive [inhibitor, partial curve, poor fit]"
7,Clc1ccc(OCCCCN2CCc3ccccc3C2)cc1,"inconclusive [inhibitor, single point]"
8,Cc1ccc(C(=O)Nc2cccnc2)cc1S(=O)(=O)N1CCCCC1,"inconclusive [inhibitor, single point]"
9,Cc1ccc(CSCC(=O)N/N=C/c2sccc2C)cc1,"inconclusive [inhibitor, single point]"
10,O=C(NCc1ccccc1)C(c1ccccc1F)n1c(=O)c(-c2ccccc2)nc2ccccc21 (configuration not stated),"inconclusive [inhibitor, full curve]"
11,O=C(c1ccccc1)c1sc(N2CCOCC2)nc1-c1ccccc1,"inconclusive [inhibitor, single point]"
12,CSc1nc(NCCOC(C)=O)c(C#N)c(-c2ccc(C(C)(C)C)cc2)n1,inactive
13,O=C(COC(=O)c1ccccc1Nc1ccccc1F)c1ccccc1,"inconclusive [inhibitor, partial curve, poor fit]"
14,CCN(CC)CCCn1c2c(c(SCC(=O)Nc3cccc4ccccc34)nc1=O)CCC2,"inconclusive [inhibitor, single point]"
15,COc1ccc(C2C(=O)N(C3CCCCC3)CC(=O)N2CCc2ccc(C)cc2)cc1OC (configuration not stated),inactive
16,CCc1ccc(S(=O)(=O)c2cn(CC(=O)Nc3ccc(F)c(Cl)c3)c3ccccc3c2=O)cc1,"inconclusive [inhibitor, partial curve, poor fit]"
17,Cc1ccc(-n2nnnc2-c2ccccc2Br)cc1,"inconclusive [inhibitor, single point]"
18,Cc1ccccc1CNC(=O)C(=O)NCCC1CCCCN1S(=O)(=O)c1ccccc1 (configuration not stated),"inconclusive [inhibitor, partial curve, poor fit]"
19,CC(C)c1csc(CN2CCCC(CCC(=O)NCc3ccccc3F)C2)n1 (configuration not stated),"inconclusive [inhibitor, partial curve, poor fit]"
20,COc1cccc(Nc2nc3cc(C)ccc3cc2C)c1,"inconclusive [inhibitor, single point]"
21,COc1ccc(OC)c(C2SCCN2S(=O)(=O)c2cccc(C(F)(F)F)c2)c1 (configuration not stated),"inconclusive [inhibitor, partial curve, poor fit]"

row,SMILES,Potency
1,CN(c1ccc(C(=O)NC2CCCC2)cc1)S(=O)(=O)c1ccc(Cl)cc1,"inconclusive [inhibitor, partial curve, poor fit]"
2,O=C(NCc1ccco1)c1ccc(-c2ccc(Cl)cc2)o1,"inconclusive [inhibitor, single point]"
3,Clc1cccc(Cl)c1/C=N\Nc1nccs1,"inconclusive [inhibitor, partial curve, poor fit]"
4,Cc1cc(C)cc(-n2ccnc2SCC(=O)Nc2cccc3ccccc23)c1,"inconclusive [inhibitor, partial curve, poor fit]"
5,O=C(c1cc2ccccc2oc1=O)N1CCN(Cc2ccc3c(c2)OCO3)CC1,"inconclusive [inhibitor, single point]"
6,COc1ccc(Cl)cc1NC(=O)CN(C)C(=O)Cc1ccc2c(c1)CCC2,"inconclusive [inhibitor, single point]"
7,CCc1ccc(CN(Cc2cccnc2)C(=O)/C=C/c2ccc(OC)cc2)cc1,"inconclusive [inhibitor, single point]"
8,CN1CCC(CNC(=O)Nc2csc3ccccc23)CC1,inactive
9,CCCc1cc(C(=O)N2CCCC(Cc3ccccc3C)(C(=O)OCC)C2)no1 (configuration not stated),"inconclusive [inhibitor, single point]"
10,O=C(NC(=S)Nc1ccc(CN2CCOCC2)cc1)c1ccc([N+](=O)[O-])cc1,inactive
11,COCCOCC(=O)Nc1ccc(S(=O)(=O)Nc2cc(C)nc(C)n2)cc1,inactive
12,Cc1cccc(CSCCNC(=O)Nc2ccccc2)c1,"inconclusive [inhibitor, partial curve]"
13,COc1ccc(/C=C/C(=O)CC(O)(c2ccccc2)C(F)(F)F)cc1 (configuration not stated),"inconclusive [inhibitor, partial curve, poor fit]"
14,CCc1noc(C)c1C(=O)Oc1ccc(N(C)S(=O)(=O)c2ccc(C)cc2)cc1,"inconclusive [inhibitor, partial curve, poor fit]"
15,COc1cccc(C(O)c2ncc(-c3ccc(C(F)(F)F)cc3)[nH]2)c1 (configuration not stated),"inconclusive [inhibitor, partial curve, poor fit]"
16,COc1ccc2[nH]c3c(c2c1)CCNC3c1ccc([N+](=O)[O-])o1 (configuration not stated),"inconclusive [inhibitor, single point]"
17,CCN(CC)c1ccc(C(=O)OCC(=O)N(C)Cc2ccccc2)cc1,"inconclusive [inhibitor, partial curve, poor fit]"
18,CCOC(=O)Cn1c(=N)n(Cc2ccc(C(C)(C)C)cc2)c2ccccc21,"inconclusive [inhibitor, partial curve, poor fit]"
19,Cc1ccc(NC(=S)N(CCCN2CCCC2)Cc2cccn2Cc2ccc(Cl)cc2)cc1C,"inconclusive [inhibitor, partial curve, poor fit]"
20,Cc1nc2cc(-c3ccccc3)nn2c(C)c1CCC(=O)N1CCN(c2ccc(F)cc2)CC1,inactive
21,Cc1ccc(-n2nnnc2SCc2nnc(-c3ccccc3Br)o2)c(C)c1,"inconclusive [inhibitor, single point]"

row,SMILES,Potency
1,COC(=O)c1cc2oc(C)cc2n1Cc1ccccc1Cl,"inconclusive [inhibitor, single point]"
2,CCCCNC(=S)N(C)N=C1CCC(c2ccccc2)CC1 (configuration not stated),"inconclusive [inhibitor, single point]"
3,O=C(C1=C[C@H](c2csc3ccccc23)C[C@H](OCc2ccc(CO)cc2)O1)N1CCN(Cc2ccccc2)CC1,"inconclusive [inhibitor, single point]"
4,OCCN(Cc1ccccc1)C(=S)Nc1ccc(Cl)cc1Cl,"inconclusive [inhibitor, single point]"
5,CCOC(=O)C1=C[C@@H](c2ccccc2)N(S(=O)(=O)c2ccc(C)cc2)[C@H]1c1ccc(F)cc1,"inconclusive [inhibitor, partial curve]"
6,COc1cc(C2C(C(=O)c3ccc(C)o3)=C(O)C(=O)N2CCc2ccccc2)ccc1O (configuration not stated),"inconclusive [inhibitor, single point]"
7,Cc1ccc(CN2C(=O)C(O)(c3c(C)[nH]c4ccccc34)c3ccccc32)cc1 (configuration not stated),"inconclusive [inhibitor, single point]"
8,COc1nc(N/N=C/c2cc3c(cc2Br)OCO3)nc(N2CCOCC2)n1,inactive
9,CCCOC(=O)c1cccc(Nc2nc(CCC)cc(=O)[nH]2)c1,"inconclusive [inhibitor, single point]"
10,O=C(COC(=O)C1=COCCO1)Nc1ncc(C(F)(F)F)cc1Cl,inactive
11,Cc1ccc(S(=O)(=O)N2CCCCC2)cc1NC(=O)CSCC(=O)O,inactive
12,CCN(CCCNC(=O)CCNC(=O)Cn1ccc2ccccc2c1=O)c1ccccc1,"inconclusive [inhibitor, partial curve, poor fit]"
13,CC(CC(=O)NCc1ccccc1)C1CCCO1 (configuration not stated),inactive
14,NC(=S)NN=C1CCSCC1,"inconclusive [inhibitor, single point]"
15,COc1cc(NC(=O)c2ccc3c(c2)OCCO3)ccc1NC(=O)c1ccccc1Cl,"inconclusive [inhibitor, full curve, poor fit]"
16,CC(C)n1ncc2c(C(=O)Nc3cccc(S(=O)(=O)N(C)C)c3)cc(C3CC3)nc21,"inconclusive [inhibitor, partial curve, poor fit]"
17,COc1ccc(Cl)c(-c2cc(C(=O)Nc3ccc(F)cc3)[nH]n2)c1,"inconclusive [inhibitor, single point]"
18,COCCCNC(=O)C1CCN(Cc2cc3ccccc3n2Cc2cccc(C)c2)CC1,"inconclusive [inhibitor, single point]"
19,Cc1ccc(NC(=O)CN(C)C(=O)c2cn(Cc3ccccc3)nc2-c2cccnc2)cc1,"inconclusive [inhibitor, single point]"
20,FCc1nc2nc(Cl)c(Cl)nc2[nH]1,inactive
